For experiment [1], the target named is T1, Polo^WT-GFP (Drosophila) (UniProt P52304).
T1 sequence: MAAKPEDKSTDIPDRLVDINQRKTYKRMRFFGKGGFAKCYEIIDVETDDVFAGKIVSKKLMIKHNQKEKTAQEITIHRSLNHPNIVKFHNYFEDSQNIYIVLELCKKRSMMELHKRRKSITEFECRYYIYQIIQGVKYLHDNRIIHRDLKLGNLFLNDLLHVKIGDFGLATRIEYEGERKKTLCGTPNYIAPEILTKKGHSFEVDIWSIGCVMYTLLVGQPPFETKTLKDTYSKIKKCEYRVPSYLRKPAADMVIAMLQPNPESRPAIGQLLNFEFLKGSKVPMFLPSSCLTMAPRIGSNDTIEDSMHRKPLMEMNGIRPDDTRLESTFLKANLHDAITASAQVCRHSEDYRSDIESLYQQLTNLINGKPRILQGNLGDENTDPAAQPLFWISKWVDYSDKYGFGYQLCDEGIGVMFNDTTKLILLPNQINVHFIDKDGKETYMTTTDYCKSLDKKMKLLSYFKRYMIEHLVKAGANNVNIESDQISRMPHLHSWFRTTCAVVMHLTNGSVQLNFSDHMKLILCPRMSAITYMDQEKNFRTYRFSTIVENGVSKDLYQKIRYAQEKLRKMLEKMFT
The experiment is described as follows: co-IP; lysates of D-Mel2 cells transfected with Myc-Cdc25 and Polo-GFP (WT or NLS7A), immunoprecipitation with anti-GFP antibodies and Protein A Dynabeads at 4 °C; western blot.

Experiment [2] concerns the target T1, Polo^WT-GFP (Drosophila). The experiment can be described thus: condition: only cells treated with the Cdk1 inhibitor RO 3306 (10 μM); co-IP; as the anti-GFP immunoprecipitation, cells treated with the Cdk1 inhibitor RO 3306 (10 μM) for 1 h before lysis.
Experiment [3] deals with T2, Luc-KD (KD–IDL of Polo, amino acids 1–349, N-terminally fused to RLucII), KD^WT (Drosophila) (UniProt P52304).
T2 sequence: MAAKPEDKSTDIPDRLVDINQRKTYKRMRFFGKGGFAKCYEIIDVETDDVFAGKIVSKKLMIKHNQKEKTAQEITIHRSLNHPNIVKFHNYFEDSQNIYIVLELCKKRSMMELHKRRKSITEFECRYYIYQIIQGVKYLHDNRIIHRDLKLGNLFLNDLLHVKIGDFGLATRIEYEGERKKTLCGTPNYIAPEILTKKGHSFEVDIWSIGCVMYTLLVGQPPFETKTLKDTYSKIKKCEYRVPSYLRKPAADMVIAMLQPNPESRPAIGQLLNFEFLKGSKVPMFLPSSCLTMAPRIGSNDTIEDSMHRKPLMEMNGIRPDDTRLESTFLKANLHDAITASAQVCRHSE
The experiment can be described thus: FRET or BRET; BRET2 titration in live HEK293T cells: fixed Luc-KD plasmid (40 ng), PBD–GFP plasmid 0-400 ng, with a co-expressed Map205 fragment (residues 254–416, C-terminal Myc, 200 ng) that stabilizes the PBD–KD complex; coelenterazine 400a.

For experiment [4], the target named is T3, Luc-KD^T182A (Drosophila) (UniProt P52304).
T3 sequence: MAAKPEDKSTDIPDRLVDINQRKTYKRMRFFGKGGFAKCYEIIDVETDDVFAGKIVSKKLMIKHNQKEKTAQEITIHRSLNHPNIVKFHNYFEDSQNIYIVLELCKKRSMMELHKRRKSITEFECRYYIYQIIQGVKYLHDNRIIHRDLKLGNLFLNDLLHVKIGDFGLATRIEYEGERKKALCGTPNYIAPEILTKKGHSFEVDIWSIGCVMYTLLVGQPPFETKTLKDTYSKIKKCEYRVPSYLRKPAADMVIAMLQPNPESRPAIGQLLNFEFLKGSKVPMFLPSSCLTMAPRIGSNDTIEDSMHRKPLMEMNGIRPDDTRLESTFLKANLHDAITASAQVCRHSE
Described as above.

Experiment [5] has as its target T4, GST-PBD M527R (amino acids 350–576) (Drosophila) (UniProt P52304).
T4 sequence: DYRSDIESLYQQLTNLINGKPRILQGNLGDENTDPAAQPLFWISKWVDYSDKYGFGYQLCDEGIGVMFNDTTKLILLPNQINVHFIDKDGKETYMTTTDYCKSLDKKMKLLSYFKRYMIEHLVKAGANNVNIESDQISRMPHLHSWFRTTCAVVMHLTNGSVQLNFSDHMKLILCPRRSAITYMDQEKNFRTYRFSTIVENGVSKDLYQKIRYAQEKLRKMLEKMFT
The experiment is described as follows: pull-down; GST–PBD (WT or mutants) on sepharose beads incubated 2 h at 4 °C with clarified lysates of D-Mel2 cells transfected with Flag-KD + IDL (WT or mutants); 50 mM Tris-HCl pH 7.5, 150 mM NaCl, 1 mM EDTA, 10% glycerol, 0.2% Triton X-100; western blot; only the target purified.

Experiment [6] concerns the target T5, GST-PBD P384R (amino acids 350–576) (Drosophila) (UniProt P52304).
T5 sequence: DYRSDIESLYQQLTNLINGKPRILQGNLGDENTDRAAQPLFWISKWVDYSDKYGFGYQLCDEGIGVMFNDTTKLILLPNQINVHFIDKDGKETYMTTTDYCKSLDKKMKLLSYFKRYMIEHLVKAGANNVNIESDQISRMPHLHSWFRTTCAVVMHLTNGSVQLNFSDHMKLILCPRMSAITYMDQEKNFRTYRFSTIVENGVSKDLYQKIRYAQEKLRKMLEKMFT
The experiment is described as above.

Experiment [7] addresses T6, GST-PBD P384R/M527R (amino acids 350–576) (Drosophila) (UniProt P52304).
T6 sequence: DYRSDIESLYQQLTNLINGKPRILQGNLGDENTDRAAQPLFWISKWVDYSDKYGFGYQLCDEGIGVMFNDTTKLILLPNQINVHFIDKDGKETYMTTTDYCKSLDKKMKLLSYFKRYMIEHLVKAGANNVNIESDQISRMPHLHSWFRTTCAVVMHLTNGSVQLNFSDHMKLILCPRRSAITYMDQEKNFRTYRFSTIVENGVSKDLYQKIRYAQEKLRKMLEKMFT
Described as above.

Experiment [8] concerns the target T7, GST-PBD WT (Polo polo-box domain, amino acids 350–576) (Drosophila) (UniProt P52304).
T7 sequence: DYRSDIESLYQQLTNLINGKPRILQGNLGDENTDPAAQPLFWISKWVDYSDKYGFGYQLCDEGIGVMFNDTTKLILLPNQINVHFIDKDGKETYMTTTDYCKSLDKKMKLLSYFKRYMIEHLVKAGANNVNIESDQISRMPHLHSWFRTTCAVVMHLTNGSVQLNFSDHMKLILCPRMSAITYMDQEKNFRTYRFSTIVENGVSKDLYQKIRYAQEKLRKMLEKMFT
Described as above.

Drawing on article PMC5700101, this text covers binding for four molecules.

No constants are given. Whether binding was seen depends on the method and setting. Binding seen in cells or lysates may run through a third protein. Some binding calls cover weakened binding; strength is not graded here. Sequences can lack the tags named with a protein.

B1: Myc-Cdc25(String) (enzyme, UniProt P20483 1-479)
chain: MLWETIVEENNCSMDCNISNNTSSSSSINKMSGSRRARRSLELMSMDQEELSFYDDDVVPQDQQRSASPELMGLLSPEGSPQRFQIVRQPKILPAMGVSSDHTPARSFRIFNSLSSTCSMESSMDDEYMELFEMESQSQQTALGFPSGLNSLISGQIKEQPAAKSPAGLSMRRPSVRRCLSMTESNTNSTTTPPPKTPETARDCFKRPEPPASANCSPIQSKRHRCAAVEKENCPAPSPLSQVTISHPPPLRKCMSLNDAEIMSALARSENRNEPELIGDFSKAYALPLMEGRHRDLKSISSETVARLLKGEFSDKVASYRIIDCRYPYEFEGGHIEGAKNLYTTEQILDEFLTVQQTELQQQQNAESGHKRNIIIFHCEFSSERGPKMSRFLRNLDRERNTNAYPALHYPEIYLLHNGYKEFFESHVELCEPHAYRTMLDPAYNEAYRHFRAKSKSWNGDGLGGATGRLKKSRSRLML
As to B1, the binding result was “binds” with Polo^WT-GFP (Drosophila) [1] and “no binding” with Polo^WT-GFP (Drosophila) [2].

B2: PBD–GFP (PBD of Polo, amino acids 350–576, C-terminally fused to GFP10) (domain or fragment, UniProt P52304 350-576)
chain: DYRSDIESLYQQLTNLINGKPRILQGNLGDENTDPAAQPLFWISKWVDYSDKYGFGYQLCDEGIGVMFNDTTKLILLPNQINVHFIDKDGKETYMTTTDYCKSLDKKMKLLSYFKRYMIEHLVKAGANNVNIESDQISRMPHLHSWFRTTCAVVMHLTNGSVQLNFSDHMKLILCPRMSAITYMDQEKNFRTYRFSTIVENGVSKDLYQKIRYAQEKLRKMLEKMFT
As for B2, the binding entry in experiment [3] and in experiment [4] was “binds” in each case.

B3: Flag-KD + IDL^WT (Polo kinase domain with the interdomain linker, amino acids 1–349) (domain or fragment, UniProt P52304 1-349)
chain: MAAKPEDKSTDIPDRLVDINQRKTYKRMRFFGKGGFAKCYEIIDVETDDVFAGKIVSKKLMIKHNQKEKTAQEITIHRSLNHPNIVKFHNYFEDSQNIYIVLELCKKRSMMELHKRRKSITEFECRYYIYQIIQGVKYLHDNRIIHRDLKLGNLFLNDLLHVKIGDFGLATRIEYEGERKKTLCGTPNYIAPEILTKKGHSFEVDIWSIGCVMYTLLVGQPPFETKTLKDTYSKIKKCEYRVPSYLRKPAADMVIAMLQPNPESRPAIGQLLNFEFLKGSKVPMFLPSSCLTMAPRIGSNDTIEDSMHRKPLMEMNGIRPDDTRLESTFLKANLHDAITASAQVCRHSE
As to B3, the binding entry in experiment [5] is “no binding”; in experiment [6], “no binding”; in experiment [7] it was “no binding”; in experiment [8], “binds”.

B4: Flag-KD + IDL^T182A (domain or fragment, UniProt P52304 1-349)
chain: MAAKPEDKSTDIPDRLVDINQRKTYKRMRFFGKGGFAKCYEIIDVETDDVFAGKIVSKKLMIKHNQKEKTAQEITIHRSLNHPNIVKFHNYFEDSQNIYIVLELCKKRSMMELHKRRKSITEFECRYYIYQIIQGVKYLHDNRIIHRDLKLGNLFLNDLLHVKIGDFGLATRIEYEGERKKALCGTPNYIAPEILTKKGHSFEVDIWSIGCVMYTLLVGQPPFETKTLKDTYSKIKKCEYRVPSYLRKPAADMVIAMLQPNPESRPAIGQLLNFEFLKGSKVPMFLPSSCLTMAPRIGSNDTIEDSMHRKPLMEMNGIRPDDTRLESTFLKANLHDAITASAQVCRHSE
On to B4, for which the binding result in experiment [8] is listed as “binds”.
